Reference: PubChem BioAssay (NCATS)
The inconclusive results got no clear call from the source; some entries with a clear call stand among them for comparison. For some of these results: Potencies of inconclusive entries are left out as doubtful fits. Active and inactive are the calls of the source. Calls follow the shape of the dose curve; as a rule, active = well fitted curve in the direction sought with a large enough effect; inconclusive = small, poorly fitted or top-dose-only effect, or another doubt; inactive = no such curve, though single readings can be large; an effect the other way counts as inactive or inconclusive.

Experiments:
[1] = test system: Zika virus NS2B-NS3 protease (linked construct); assay: Primary screen NINDS Rhodamine qHTS for Zika virus inhibitors (AID 1347160); also: nearly all actives have a fitted effect of over 55% in size; also: potency is read from the fitted curve at half-maximal effect
Method in brief: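 Rhodamine110-peptide cleavage (1.5 µM substrate) by 25 nM linked NS2B-NS3 enzyme at pH 8.0 (Tris, Tween 20), after 15 min RT preincubation with compounds; 15-min fluorescence change normalized to controls and Hill-fitted.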

[2] = Primary qHTS for inhibitors of nuclear receptor binding SET domain protein 2 (NSD2) in an isogenic RCH-ACV NSD2 p.E1099K mutant (9B) (AID 1645876); also: nearly all actives have a fitted effect of over 70% in size
[3] = target: Glutathione peroxidase 1 (Homo sapiens) (UniProt P07203); assay: Primary qHTS Assay for Inhibitors of Recombinant Selenoprotein Glutathione Peroxidase 1 (GPX1) (AID 1845191); also: potency is read from the fitted curve at half-maximal effect; nearly all actives have a fitted effect of over 65% in size
Method in brief: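 GPX1 10 nM, GR 100 nM, GSH 1 mM, NADPH 0.5 mM, CHP 0.5 mM (final). 30-min cpd preincubation, RT. Ex340/Em450 read t=0, t=15 min.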

[4] = target: Phospholipid hydroperoxide glutathione peroxidase GPX4 (Homo sapiens) (UniProt P36969); assay: Primary qHTS Assay for Inhibitors of Recombinant Selenoprotein Glutathione Peroxidase 4 (GPX4) (AID 1845192); also: potency is read from the fitted curve at half-maximal effect; nearly all actives have a fitted effect of over 65% in size
Method in brief: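 qHTS, GR-coupled: GPX4 200 nM + cpd 30 min RT → GSH 1 mM, NADPH 0.5 mM, GR 100 nM → CHP 0.5 mM start; fluor 340/450 at t0 and t15 min; no-enzyme wells as control.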

[5] = SW1088 Cancer Cell Toxicity qHTS against the NCATS CANVASS Library (AID 1347350); also: nearly all actives have a fitted effect of over 75% in size; also: potency is read from the fitted curve at half-maximal effect
Method in brief: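 Cells were seeded at 1000 per well, allowed 4 h at 37 degrees C/5% CO2, then pin-treated with an 11-point compound series. After 72 h, viability was read as CellTiter-Glo luminescence following 15min at room temperature.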

[6] = COV-362 Cancer Cell Toxicity qHTS against the NCATS CANVASS Library (AID 1347352)
Method in brief: (§1)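 Toxicity was measured as CellTiter-Glo luminescence after 72 h exposure to an 11-point compound series. Compound was added to 1000 cells/well 4 h after seeding.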

[7] = qHTS for Hypoxia signaling pathway (HIF-1) antagonists against the NCATS CANVASS Library (AID 1347374); also: nearly all actives have a fitted effect of over 60% in size; also: potency is read from the fitted curve at half-maximal effect
Method in brief: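 Antagonism scored as loss of CoCl2-driven (60 uM stock added) HRE beta-lactamase signal, read by CCF4 FRET at 460/530 nm. Compounds were tested in an 11-point series on ME-180 reporter cells for 17 hrs at 37C, with parallel CellTiter-Glo cytotoxicity.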

[8] = qHTS for Antimalaria activity screened against the NCATS CANVASS Library (AID 1347380); also: nearly all actives have a fitted effect of over 40% in size; also: potency is read from the fitted curve at half-maximal effect
Method in brief: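 SYBR Green fluorescence at 485/535 nm was read 18 hr after lysis. This followed a 72 hr incubation at 37C in 5% O2, 5% CO2 of Dd2-infected erythrocytes (0.3% parasitemia, 2.5% final hematocrit) with compounds titrated over 11 concentrations.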

[9] = qHTS for inhibitors of ER calcium dysfunction: SERCaMP assay screened against the NCATS CANVASS Library (AID 1347393); conditions: SH-SY5Y GLuc-SERCaMP (Gaussia luciferase released on ER calcium loss) secretion, thapsigargin, luminescence; series mostly up to 76.6 µM; also: nearly all actives have a fitted effect of over 40% in size; also: potency is read from the fitted curve at half-maximal effect
Method in brief: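 qHTS in SH-SY5Y reporter cells: 16 h compound pretreatment, 4 h thapsigargin, then secreted Gaussia luciferase measured by luminescence.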

[10] = test system: NAD(P)H diaphorase (Clostridium kluyveri); assay: Diaphorse counterscreen qHTS: Assay Interference Panel against the NCATS CANVASS Library (AID 1347362); also: potency is read from the fitted curve at half-maximal effect
Method in brief: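 Clostridium kluyveri diaphorase in PBS with 0.01% Tween-20 was preincubated 15 min at room temperature in the dark with compounds (11-point series). Resorufin fluorescence (ex 525/20, em 598/25) was read 5 min after adding resazurin/NADH.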

[11] = qHTS for ATAD5 Antagonist screened against the NCATS CANVASS Library (AID 1347370);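 also: HEK293T cells carrying an ATAD5 luciferase reporter co-treated with 10 µM 5-fluorouridine; nearly all actives have a fitted effect of over 65% in size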
Method in brief: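 Compounds (11-point) co-dosed with 10 µM 5-FUrd for 16 h at 37 °C onto HEK293T-ATAD5 luciferase reporter cells. Viability measured by CellTiter-Fluor fluorescence, then ATAD5 reporter signal by luminescence.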

[12] = qHTS for activators of Nrf2/ARE signaling pathway screened against the NCATS CANVASS Library (AID 1347391); also: potency is read from the fitted curve at half-maximal effect; nearly all actives have a fitted effect of over 60% in size
Method in brief: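 Eleven-point qHTS, 16 h treatment of HepG2 cells carrying an ARE-driven beta-lactamase reporter; CCF4 ratio read (405 nm excitation, 460 and 530 nm emission), with CellTiter-Glo ATP luminescence for viability.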

[13] = qHTS for inhibitors of Wild type Zika virus screened against the NCATS CANVASS Library (AID 1347396);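 also: ATP luminescence of surviving cells so rescue from viral cell killing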
Method in brief: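 Luminescent CellTiter Glo read-out of virus-induced cytotoxicity, 72 h post-infection, in Vero 766 cells. Compounds were tested at 11 concentrations; uninfected, vehicle-treated wells defined 100% inhibition.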

[14] = Redox Reaction Profiling qHTS: Assay Interference Panel against the NCATS CANVASS Library (AID 1347401); also: potency is read from the fitted curve at half-maximal effect
Method in brief: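 Quantitative HTS over an 11-point series was run in HEPES pH 7.3 with 50 mM NaCl, 200 uM DTT and 5 uM resazurin. Initial and 15-min resorufin fluorescence readings were taken.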

[15] = UWB1.289-WTBRCA1 Cancer Cell Toxicity qHTS against the NCATS CANVASS Library (AID 1347354); also: potency is read from the fitted curve at half-maximal effect
Method in brief: as §1

[16] = MCF7 Cancer Cell Toxicity qHTS against the NCATS CANVASS Library (AID 1347369); conditions: activity change, negative = cytotoxicity: at 46 µM (top of the series)
Method in brief: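 MCF7 cells (500/well) were exposed 72 h at 37 °C to compounds in an 11-point series. Viability was read as ATP content by CellTiterGlo luminescence.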

[17] = DH5-alpha competent E. coli microbial cell viability qHTS against the NCATS CANVASS Library (AID 1347377); conditions: viability signal change, negative = cytotoxic: at 46.1 µM (top of the series); also: potency is read from the fitted curve at half-maximal effect
Method in brief: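 Bacterial viability as ATP-dependent luminescence (BacTiter-Glo), read after overnight 37 °C exposure of DH5-alpha competent E. coli to compounds in 11-point titration.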

[18] = qHTS for H2AX Agonists against the NCATS CANVASS Library (AID 1347378); also: potency is read from the fitted curve at half-maximal effect
Method in brief: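 CHO-K1 cells (1000/well, overnight at 37C) exposed to compounds at several concentrations for 3 hr at 37C, 0.76% DMSO final. Lysates read by TR-FRET (phospho-H2AX S139 Eu-cryptate antibody / H2AX-d2 antibody) after 24 hr at room temperature; 665/615 nm ratio.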

[19] = qHTS for Inflammasome Signaling Inhibitors: IL-1-beta AlphaLISA screen against the NCATS CANVASS Library (AID 1347379);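 also: human THP-1 cells primed with LPS then triggered with ATP; secreted IL-1B measured as AlphaLISA emission at 615 nm; lower signal means less IL-1B release which is the wanted effect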
Method in brief: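 Secreted IL-1B from human THP-1 cells quantified by AlphaLISA 16 hr after compound addition (final up to 57.5 uM). A 1 hr compound pretreatment preceded inflammasome activation with 250 ng/mL LPS plus 1.25 mM ATP (final).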

[20] = Vero-766 cells viability qHTS against the NCATS CANVASS Library: Counterscreen for Zika virus inhibition assay (AID 1347394); conditions: Vero 766 viability, CellTiter-Glo luminescence, 72 h; activity change, negative = cytotoxic: at 46.1 µM (top of the series); also: nearly all actives have a fitted effect of over 60% in size
Method in brief: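 Vero 766 cells (1000/well), without Zika virus, were exposed to compounds for 72 h at 37C. Viability was measured by CellTiter Glo luminescence. Media-only wells served as 100% inhibition.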

[21] = A2780 Cisplatin Sensitive Ovarian Cancer Cell Toxicity qHTS against the NCATS CANVASS Library (AID 1347353); also: potency is read from the fitted curve at half-maximal effect; nearly all actives have a fitted effect of over 60% in size
Method in brief: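 Cisplatin-sensitive A2780 ovarian cells (750/well) received compound in 11 concentrations, and were incubated 72 h at 37 °C. ATP content was measured by ATPLite luminescence; bortezomib served as control.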

[22] = target: Luciferin 4-monooxygenase (Photinus pyralis) (UniProt P08659); assay: Firefly luciferase counterscreen qHTS: Assay Interference Panel against the NCATS CANVASS Library (AID 1347363); also: potency is read from the fitted curve at half-maximal effect
Method in brief: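 Purified P. pyralis luciferase was added to compounds (11-point series) preincubated 15 min at room temperature with substrate containing 0.013 mM D-luciferin and 0.013 mM ATP; luminescence was read after 5 min.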

[23] = target: Nuclear receptor subfamily 1 group I member 3 (Homo sapiens) (UniProt Q14994); assay: qHTS for Constitutive Androstane Receptor (CAR) Agonist screened against the NCATS CANVASS Library (AID 1347373)
Method in brief: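 Agonist mode with 1.5uM PK11195 present: compounds for 24hr on HepG2-hCAR-CYP2B6 cells. CellTiter-Fluor fluorescence (ex 405, em 540 nm) gives viability; ONE-Glo luminescence reports CAR activation.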
Tags tell the direction and shape of the fitted curve.

UniProt Q14994, sequence (Q14994 whole entry, looked up): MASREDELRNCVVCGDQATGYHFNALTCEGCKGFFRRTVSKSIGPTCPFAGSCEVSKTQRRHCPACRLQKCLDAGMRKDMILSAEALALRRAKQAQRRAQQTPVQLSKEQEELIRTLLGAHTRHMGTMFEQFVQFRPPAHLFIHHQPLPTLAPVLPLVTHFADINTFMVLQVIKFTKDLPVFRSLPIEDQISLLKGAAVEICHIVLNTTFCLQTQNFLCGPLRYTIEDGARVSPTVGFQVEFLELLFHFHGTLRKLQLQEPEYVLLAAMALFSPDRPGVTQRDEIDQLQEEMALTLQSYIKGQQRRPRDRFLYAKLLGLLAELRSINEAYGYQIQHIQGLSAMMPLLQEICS
UniProt P08659, sequence (P08659 whole entry, looked up): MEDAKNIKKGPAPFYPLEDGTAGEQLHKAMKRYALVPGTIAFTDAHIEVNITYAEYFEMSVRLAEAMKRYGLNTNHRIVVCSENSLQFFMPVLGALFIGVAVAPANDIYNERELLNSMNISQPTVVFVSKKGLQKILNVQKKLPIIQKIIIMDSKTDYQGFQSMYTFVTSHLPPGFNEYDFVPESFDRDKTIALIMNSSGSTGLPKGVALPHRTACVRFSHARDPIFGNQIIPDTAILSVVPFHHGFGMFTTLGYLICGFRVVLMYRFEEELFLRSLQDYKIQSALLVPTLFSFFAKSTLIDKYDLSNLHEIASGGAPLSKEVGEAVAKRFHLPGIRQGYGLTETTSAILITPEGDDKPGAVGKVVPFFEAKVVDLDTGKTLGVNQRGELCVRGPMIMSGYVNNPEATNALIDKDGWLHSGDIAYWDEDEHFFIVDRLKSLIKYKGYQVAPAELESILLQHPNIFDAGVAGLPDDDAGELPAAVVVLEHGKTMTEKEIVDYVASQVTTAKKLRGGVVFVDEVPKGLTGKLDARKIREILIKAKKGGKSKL
UniProt P07203, sequence (P07203 whole entry, looked up): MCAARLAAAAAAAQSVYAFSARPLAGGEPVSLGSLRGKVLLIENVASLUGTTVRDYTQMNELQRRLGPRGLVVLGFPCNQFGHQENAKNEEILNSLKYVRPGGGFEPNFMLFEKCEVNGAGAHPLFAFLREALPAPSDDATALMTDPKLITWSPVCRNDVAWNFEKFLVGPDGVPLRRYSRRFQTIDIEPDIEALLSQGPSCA
UniProt P36969, sequence (P36969 whole entry, looked up): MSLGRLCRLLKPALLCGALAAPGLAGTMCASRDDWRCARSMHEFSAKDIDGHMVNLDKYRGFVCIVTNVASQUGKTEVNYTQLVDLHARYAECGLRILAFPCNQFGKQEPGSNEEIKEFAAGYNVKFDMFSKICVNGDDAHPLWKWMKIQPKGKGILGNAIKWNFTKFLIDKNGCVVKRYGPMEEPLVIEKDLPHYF

For `C[C@H](O)[C@H](O)[C@H]1CNc2nc(N)[nH]c(=O)c2N1`, the Potency [1] was “inactive”, the Potency [2] was “inactive” and the Potency [3] was active: 18 µM. The Potency [4] was active: 20.2 µM.

For `Cc1cc(O)cc2c1C(=O)c1c(O)cc(O)cc1C2=O`, the Potency [1] was inconclusive [inhibitor, partial curve], the Potency [5] was “inactive” and the Potency [6] was “inactive”. For the same compound, the Potency [7] was “inactive”, the Potency [8] was inconclusive [cytotoxic, full curve] and the Potency [9] was “inactive”.

In the case of `COc1cc(O)c2c3c(c(O)cc(C)c13)C(=O)OC2`, the Potency [1] is reported as active: 22 µM, the Potency [10] is reported as inconclusive [inhibitor, partial curve] and the Potency [11] is reported as “inactive”. For the same compound, the Potency [8] was “inactive”, the Potency [12] was inconclusive [activator, partial curve, poor fit] and the Potency [9] was inconclusive [inhibitor, partial curve, poor fit]. The Potency [13] was “inactive” and the Potency [14] was active: 21.5 µM.

For `C[C@@]12CCC[C@@](C)(C(=O)OP(=O)(O)OC[C@H]3O[C@@H](n4cnc5c(N)ncnc54)[C@H](O)[C@@H]3O)[C@H]1C[C@@H](O)[C@@]13C[C@@H](CC[C@@H]21)[C@](C)(O)C3`, the Potency [1] was inconclusive [inhibitor, partial curve], the Potency [5] was “inactive” and the Potency [15] was inconclusive [rising, single point]. The Potency [16] was “inactive”, the Potency [11] was “inactive” and the Potency [7] was inconclusive [inhibitor, single point]. For the same compound, the Potency [17] was inconclusive [cytotoxic, full curve, poor fit], the Potency [18] was inconclusive [activator, full curve] and the Potency [19] was “inactive”. For the same compound, the Potency [20] was “inactive”, the Potency [13] was “inactive” and the Potency [14] was inconclusive [activator, single point].

For `CC1(C)C=Cc2c(ccc3c2OC[C@@H](c2ccc(O)cc2O)C3)O1`, the Potency [1] was active: 44 µM, the Potency [5] was inconclusive [cytotoxic, single point] and the Potency [21] was inconclusive [cytotoxic, single point]. The Potency [15] was “inactive”, the Potency [22] was inconclusive [inhibitor, partial curve] and the Potency [23] was inconclusive [activator, partial curve]. The Potency [7] was inconclusive [inhibitor, single point], the Potency [8] was inconclusive [cytotoxic, full curve] and the Potency [12] was inconclusive [activator, single point]. For the same compound, the Potency [9] was active: 30.5 µM.
